The values that follow come from article PMC7819943, “Rice protein-binding microarrays: a tool to detect cis-acting elements near promoter regions in rice”.

The other results are listed elsewhere or left out.

The assay concerns the target T1, OsWOX13 (Oryza sativa, UniProt Q5QMM3 1-267).
T1 sequence: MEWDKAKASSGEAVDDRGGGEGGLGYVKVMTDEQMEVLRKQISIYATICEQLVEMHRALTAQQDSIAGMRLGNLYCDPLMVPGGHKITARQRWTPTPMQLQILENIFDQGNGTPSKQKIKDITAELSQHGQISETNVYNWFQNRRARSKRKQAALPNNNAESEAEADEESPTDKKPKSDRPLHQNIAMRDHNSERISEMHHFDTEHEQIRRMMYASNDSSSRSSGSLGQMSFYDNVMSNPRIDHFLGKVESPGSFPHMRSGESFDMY
The assay can be described thus: protein-binding microarray (RPBM); PBS, 2% BSA, 51.3 ng/ul salmon testes DNA, 50 uM zinc acetate, 200 nM TF, 25 C, 1 h; high values mean tight binding. The settings on record: protein: recombinant; tags: N-terminal polyhistidine and DsRed monomer fusion (pET32a); label: CyDye5-dUTP incorporated in the synthesized complementary strand; 3' TTTTT single-stranded linker to array surface; dsDNA, one strand shown. The method, boiled down: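 Binding signal is defined as the fluorescence intensity of each feature in arbitrary units, read on an Axon 4000B scanner. Transcription factors with N-terminal polyhistidine and DsRed fusions came from E. coli BL21-CodonPlus and were purified on Ni–NTA. They were incubated at 200 nM for 1 h at 25 °C on a custom Agilent array that had been made double-stranded with Cy5-dUTP, with 50 µM zinc acetate present, and the array was washed.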
In the case of “GCTGATGGATCTTGTAATCGTACCTGTGAAGTTTGTGCTACGGAGTCACCTAGTGCAG”, the binding signal is 17000 fluorescence intensity (a.u.). For “GAAGATTGAGTACAGGAACGCAAAATGAGAAAATCATTAGCGGAGTCACCTAGTGCAG”, the binding signal is 8910 fluorescence intensity (a.u.).

As to “CGTTGCAATTACCATCCTCCTCTGACTGGAAATATCAACGCGGAGTCACCTAGTGCAG”, the binding signal was 6930 fluorescence intensity (a.u.). In the case of “GTGATCGGATTGTAGATTGGATAATTAGTTTAACAGAAAACGGAGTCACCTAGTGCAG” it was 12700 fluorescence intensity (a.u.); in that of “GCCGTGATGAAGTGATTGGGTGGCTGCAACAGCTAAAATGCGGAGTCACCTAGTGCAG”, 26100 fluorescence intensity (a.u.); in that of “GTAATTGCGGCCCATTAACCTAAATGGGCCGATCGAGTGGCGGAGTCACCTAGTGCAG”, 4580 fluorescence intensity (a.u.). In the case of “TAAATTGTAATTTGTAATAAAACAGTAAATGAACCTTCTCCGGAGTCACCTAGTGCAG” it was 36900 fluorescence intensity (a.u.); in that of “TACCTAATTAATTTTGCTCCGTTTTGCGTGCGTGGAGTATCGGAGTCACCTAGTGCAG”, 26100 fluorescence intensity (a.u.). With “CCATTAATTATGTTGGACATAATTAAGAGAATTTGCTAAACGGAGTCACCTAGTGCAG” the figure was 52300 fluorescence intensity (a.u.). For “TCTGAATCATTGACATTGTTCAGTGCTCCATTTGTCTGTTCGGAGTCACCTAGTGCAG”, the binding signal is 4300 fluorescence intensity (a.u.). On to “TCCGGATCTGATTTATTCTTTTCTCTGGAGTTAAGCTGACCGGAGTCACCTAGTGCAG”, for which the binding signal was 6330 fluorescence intensity (a.u.). Regarding “CCTTAATTACCCCGACTAGACCCCTATCAAGGATCCAAAGCGGAGTCACCTAGTGCAG”, the binding signal is 5140 fluorescence intensity (a.u.). With “ATTGATCAAATGGACAGGATTGATATGTGTATATTTCTATCGGAGTCACCTAGTGCAG” the figure was 27200 fluorescence intensity (a.u.). With “TTTCAATTTAAATGCTGCAAATATTGTGAAACCTGAAGATCGGAGTCACCTAGTGCAG”, the binding signal is 4450 fluorescence intensity (a.u.). Take “ATAATTGAAACGATGCCATCAGAATACGTATGAAATTAGACGGAGTCACCTAGTGCAG”: the binding signal was 22300 fluorescence intensity (a.u.).

With “ACTAATTTTATAACTCGCCCGGAAATCGTGTGACGGATTTCGGAGTCACCTAGTGCAG”, the binding signal is 8160 fluorescence intensity (a.u.). With “AATCTTATTGATTTAGGGCATATATCTGGGAAGGTTGCTACGGAGTCACCTAGTGCAG”, the binding signal was 12200 fluorescence intensity (a.u.). Take “ATTAATCCTAATTACTCCTAACCATTAATCCAACTATAAACGGAGTCACCTAGTGCAG”: the binding signal was 4260 fluorescence intensity (a.u.). Take “GGCTAAAGTAAAACTTAATTAGTGAGTTGTTTATCTTTTCCGGAGTCACCTAGTGCAG”: the binding signal was 3420 fluorescence intensity (a.u.). With “CTCTTGATTGTATCCTTAGGCACTTTGTATATTCTCGAGTCGGAGTCACCTAGTGCAG” the figure was 31700 fluorescence intensity (a.u.); with “CTGGCTTGATTTAGTTGTCTCGACGTTGTTCAGGTGGTCTCGGAGTCACCTAGTGCAG”, 6700 fluorescence intensity (a.u.). As for “AGAATGATTTAAGTGAGCGGCTTAAATTTTATTATCGCTTCGGAGTCACCTAGTGCAG”, the binding signal is 18600 fluorescence intensity (a.u.). In the case of “CGTGATGGAAAGATTACATCACATCCTATCTTTTGGATATCGGAGTCACCTAGTGCAG” it was 20000 fluorescence intensity (a.u.); in that of “ACAAAGATTTGTTATCAAATAGTTGCAAATGATTAGTTAGCGGAGTCACCTAGTGCAG”, 4120 fluorescence intensity (a.u.); in that of “AATAATTTTGGAATGGCACCGAATTACCCTCTCCACCTCGCGGAGTCACCTAGTGCAG”, 9720 fluorescence intensity (a.u.). “ACTTAATTTTAGTCTTAATATTTAGACACTAATTTAGAGTCGGAGTCACCTAGTGCAG”: the binding signal was 46100 fluorescence intensity (a.u.). Regarding “TCTAAATCAAAACCACATGATAAATTTAAAACCCCACAGACGGAGTCACCTAGTGCAG”, the binding signal was 3180 fluorescence intensity (a.u.). Take “AAAATCACTGGATTAATTGATTGCGTCGTACTATCATTGCCGGAGTCACCTAGTGCAG”: the binding signal is 64600 fluorescence intensity (a.u.). With “TCTGAATAAATTTTATAAACCAAAATTTGAATACAAATTCCGGAGTCACCTAGTGCAG” the figure was 3170 fluorescence intensity (a.u.); with “TACTAGATTGCTATATTATGGGACGGAGGGAGTACATCCCCGGAGTCACCTAGTGCAG”, 16500 fluorescence intensity (a.u.); with “AAATATCTTCAAATTATAAATCATGTAAATTTAATCCATTCGGAGTCACCTAGTGCAG”, 6340 fluorescence intensity (a.u.). For “GATTCTATCAGTTGGAAAATTGACTAAAATTTTAAGAAAACGGAGTCACCTAGTGCAG”, the binding signal is 14800 fluorescence intensity (a.u.). As for “GTTAATTAAGAAATAAGCACGGAATAAGACAAGCATATAACGGAGTCACCTAGTGCAG”, the binding signal was 5840 fluorescence intensity (a.u.).

In the case of “TTAGATTAGATAATTATGAATGAGTATAAATGCTTCTGCTCGGAGTCACCTAGTGCAG”, the binding signal was 37300 fluorescence intensity (a.u.). For “CTACAATCATGTATTGGTTAATTGGGTGCATGCATGTATGCGGAGTCACCTAGTGCAG”, the binding signal is 25500 fluorescence intensity (a.u.). Take “TGATTGATATATGGTTACATGTCTTTAGTTGTATATGAGTCGGAGTCACCTAGTGCAG”: the binding signal is 15100 fluorescence intensity (a.u.).

As for “TTTGTTAAATTTCTCAATTGATTCATAATTCTTTATTAGCCGGAGTCACCTAGTGCAG”, the binding signal is 10300 fluorescence intensity (a.u.). In the case of “AGTCAATTTAATAGCCAATTCATACAATATTTACCTACAACGGAGTCACCTAGTGCAG”, the binding signal was 15700 fluorescence intensity (a.u.). For “CAAATTAATAATCAATTTATACAATAGTTATCTATAAATACGGAGTCACCTAGTGCAG”, the binding signal is 20000 fluorescence intensity (a.u.).

Regarding “TACTTAATTAATCATGTGTTAAAAGGCTGCTCCGTTTTGCCGGAGTCACCTAGTGCAG”, the binding signal was 40700 fluorescence intensity (a.u.). With “CGCCGTCGTCATCATTTGTCAATCAGTGACAGTCACGAGACGGAGTCACCTAGTGCAG” the figure was 25000 fluorescence intensity (a.u.). As for “CCAATAATTTCCTTTTCCCATAAGTTAAAGCTAAGCATTCCGGAGTCACCTAGTGCAG”, the binding signal is 5450 fluorescence intensity (a.u.).
